PubChem BioAssay AID504466 (National Center for Advancing Translational Sciences (NCATS), 2011)
The whole screen tested about 330,000 compounds, of which about 4,200 (1.3%) were called active. The shares of active, inactive and inconclusive entries below differ from those in the screen. Calls come from the whole dose curve; as a rule, active = well fitted activation curve with a large enough effect; inconclusive = small, poorly fitted or top-dose-only effect; inactive = no such curve, though single readings can be large or run the other way. Potencies beside an inconclusive call are fits to weak or partial responses and may not hold up.

Assay: qHTS screen for small molecules that induce genotoxicity in human embryonic kidney (HEK293T) cells expressing luciferase-tagged ELG1; note: nearly all actives have a fitted effect of over 60% in size
Conditions: HEK293T ELG1-luciferase reporter, luminescence, 16 h; series mostly up to 46 µM
In short: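 ELG1-luciferase HEK293T cells, 2,000/well; compound pinned in; 16 hr, 37 °C, 5% CO2; ONE-Glo, 30 min RT; luminescence on CCD imager.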
Potency is the fitted concentration of half-maximal effect; tags give direction and shape of the fitted curve.

| SMILES | Potency |
| --- | --- |
| O=C(COc1ccc(F)cc1)Nc1nnc(C2CC2)s1 | inconclusive: 23.1 µM [activator, single point] |
| Cc1cc(NC(=O)CCN2C(=O)/C(=C/c3ccccc3F)SC2=S)no1 | inactive |
| CCOC(=O)C1CCN(c2ncnc3c2oc2ccc(Br)cc23)CC1 | inconclusive: 29.1 µM [activator, single point] |
| Cc1nn(Cc2cccc(C(=O)Nc3ccn(Cc4c(F)c(F)cc(F)c4F)n3)c2)c(C)c1[N+](=O)[O-] | inactive |
| Cc1cc(N2Cc3ccccc3C2)ccc1C=O | active: 5.8 µM |
| C/C(=N\Nc1cccc([N+](=O)[O-])c1)c1ccccc1O | inconclusive: 18.3 µM [activator, partial curve, poor fit] |
| Cc1cc(NC(=O)NCc2ccccc2)c(=O)n(Cc2ccccc2F)c1 | inactive |
| Cc1cc2oc(=O)cc(CN3CCN(S(=O)(=O)c4cccs4)CC3)c2cc1C | inactive |
| COc1ccccc1CNC(=O)c1ccc(Cl)c(S(=O)(=O)N2CCCC2)c1 | inactive |
| CCN(Cc1ccccc1)C(=O)CN1C(=O)NC(CC)(c2ccc(F)cc2)C1=O (centres undefined) | inactive |
| Cc1cc(C)cc(N=Cc2ccc([N+](=O)[O-])s2)c1 | inconclusive: 32.6 µM [activator, partial curve, poor fit] |
| O=C(/C=C\c1ccco1)c1ccc(NC(=O)c2ccco2)cc1 | inconclusive: 7.3 µM [activator, partial curve, poor fit] |
| O=C1c2cccc3c([N+](=O)[O-])ccc(c23)C(=O)N1c1ccccn1 | inconclusive: 32.6 µM [activator, partial curve, poor fit] |
| Cn1c(NCc2cccs2)nc2ccccc21 | active: 23.1 µM |
| Cc1cccc(NC(=O)CCc2nc3sc4c(c3c(=O)[nH]2)CCCC4)c1 | inconclusive: 29.1 µM [activator, single point] |
| Cn1c(C(=O)NCC2CCCO2)cc2oc3ccccc3c21 (centres undefined) | inconclusive: 9.2 µM [activator, partial curve, poor fit] |
| CSc1ccc(C2c3[nH]c4ccccc4c3CCN2C(=O)c2cc(C)n(C)n2)cc1 (centres undefined) | inconclusive: 10.3 µM [activator, partial curve, poor fit] |
| O=c1[nH]c(/C=C/c2ccccn2)nc2ccccc12 | inconclusive: 10.3 µM [activator, partial curve, poor fit] |
| NC(=O)c1cc([N+](=O)[O-])ccc1NCc1ccc(C(=O)O)cc1 | inactive |
| O=C(COC(=O)c1ccco1)Nc1nc2ccc([N+](=O)[O-])cc2s1 | inactive |
| Cc1cc(NC(=O)NC(=O)c2ccc(F)cc2F)n[nH]1 | inconclusive: 1.84 µM [activator, full curve] |
| Cc1nnc2ccc(-c3cccc(NS(=O)(=O)c4ccccc4[N+](=O)[O-])c3)nn12 | inconclusive: 20.6 µM [activator, single point] |
| CCn1c(C)nc2cc(C(=O)N=Nc3c(O)[nH]c4ccccc34)ccc21 | inconclusive: 9.2 µM [activator, partial curve, poor fit] |
| CCC(=O)N1CCN(c2ccc(NC(=O)COc3ccc(CC)cc3)cc2)CC1 | inactive |
| O=C(N/N=C\C=C\c1ccc2c(c1)OCO2)c1ccc(F)cc1 | inactive |

| SMILES | Potency |
| --- | --- |
| O=c1c2c(nc3cc(-c4cccc(Cl)c4)[nH]n13)CCCC2 | active: 0.517 µM |
| CCOc1ccc(N(C(=O)c2snc(C(N)=O)c2N)C(C(=O)NCC2CCCO2)c2ccco2)cc1 (centres undefined) | inactive |
| CCc1cc2c(=O)n3c(nc2s1)-c1[nH]c2ccc(OC)cc2c1CC3 | inconclusive: 6.51 µM [activator, partial curve, poor fit] |
| O=C(N/N=C/C(Br)=C\c1ccccc1)c1cccs1 | inconclusive: 10.3 µM [activator, partial curve] |
| C/C(=N\Nc1ccccn1)c1ccc(N2CCOCC2)cc1 | inconclusive: 18.3 µM [activator, partial curve] |
| O=C(NCc1ccccn1)c1cc(-c2ccccc2)on1 | inconclusive: 14.6 µM [activator, partial curve] |
| CCOC(=O)N1CCN(S(=O)(=O)c2c(C(=O)N3CCCCC3)c(C)n(C)c2C)CC1 | inactive |
| COc1cccc(Nc2nc3ccc(OC)cc3s2)c1 | inconclusive: 2.91 µM [activator, single point] |
| O=C(c1cc(-c2cccs2)nn1-c1ccccc1)N1CCN(S(=O)(=O)c2ccccc2)CC1 | inactive |
| O=C(CSc1n[nH]c(-c2cccs2)n1)N1CCCCC1 | inconclusive: 11.6 µM [activator, single point] |
| Cc1ccc(-n2nc3ccc(N)cc3n2)c(C)c1 | inconclusive: 13 µM [activator, partial curve, poor fit] |
| O=C(NC1CCN(Cc2ccccc2)CC1)C1CCCN(c2nnc(-n3cccc3)s2)C1 (centres undefined) | inconclusive: 16.4 µM [activator, partial curve] |
| Cc1cc(/C=C2/C(=O)N(C)C(=S)N2C)c(C)n1C1CC1 | active: 18.4 µM |
| OCC1OC(n2cnc3c(NC4CCCCC4)ncnc32)C(O)C1O (centres undefined) | inconclusive: 10.3 µM [activator, partial curve, poor fit] |
| CCC(=O)N1CCC(c2ccc(OC)cc2)=N1 | inconclusive: 18.4 µM [activator, single point] |
| CC(C)(C)c1ncc(S(=O)(=O)c2ccc(C(F)(F)F)cn2)c(N)n1 | inconclusive: 32.6 µM [activator, partial curve, poor fit] |
| O=Cc1cccn1-c1ccc2ccccc2c1 | inconclusive: 16.4 µM [activator, partial curve, poor fit] |
| [O-]/[N+](=C/c1ccc(F)cc1)c1ccc(Cl)cc1 | active: 16.4 µM |
| O=C(NC(=O)c1ccccc1)Nc1ccccc1 | inconclusive: 0.82 µM [activator, partial curve, poor fit] |
| O=C(NC(=S)Nc1ccc(Br)cn1)c1cccs1 | inconclusive: 7.3 µM [activator, partial curve] |
| COc1ccc(/C(C#N)=C/c2ccccn2)cc1 | inconclusive: 5.17 µM [activator, partial curve] |
| Cc1cccc(OCCCC(=O)Nc2ccc(N(C)C)cc2)c1 | inconclusive: 16.4 µM [activator, partial curve, poor fit] |
| O=C(COc1ccc2c3c(c(=O)oc2c1)CCC3)Nc1ccccn1 | active: 1.64 µM |
| CN(CC(=O)Nc1ccc(F)c(F)c1F)C(=O)c1ccc(=O)[nH]c1 | active: 4.61 µM |
| O=Cc1cccc(OCc2cccc3ccccc23)c1 | inconclusive: 9.2 µM [activator, partial curve, poor fit] |

| SMILES | Potency |
| --- | --- |
| CCOc1ccc(S(=O)(=O)NCCC(=O)NCCOc2ccccc2OC)cc1 | inactive |
| Cc1ccc(NC(=O)CC2SCCNC2=O)cc1Cl (centres undefined) | inconclusive: 23.1 µM [activator, partial curve] |
| CC(=O)Nc1cccc(C(=O)/C=C/c2ccc(F)cc2)c1 | inconclusive: 29.1 µM [activator, partial curve, poor fit] |
| Cc1ccc(NC(=O)C2COc3ccccc3O2)nc1 (centres undefined) | active: 10 µM |
| O=C(CCCOc1ccc(Cl)cc1Cl)Nc1cccnc1 | inactive |
| CCOC(=O)/C(=C/c1ccc(OC(=O)c2ccccc2)cc1)C(C)=O | inconclusive: 29.1 µM [activator, single point] |
| COc1ccc(C(=O)Nc2ccc(Nc3ccccc3)cc2)cc1OC | inactive |
| Cn1c(NNC(=O)C(c2ccccc2)c2ccccc2)cc(=O)n(C)c1=O | inactive |
| O=C(N/N=C/C(Cl)=C/c1ccccc1)c1ccccc1F | inconclusive: 14.6 µM [activator, partial curve] |
| Fc1cccc(Cl)c1CN1CCN(c2nc3ccccc3s2)CC1 | active: 14.6 µM |
| Cc1cc(C(=O)CSc2nn3c(=O)c(C(C)(C)C)nnc3s2)c(C)n1C | inactive |
| COc1ccc(-c2nnc(SCC(=O)Nc3ncc(C)s3)n2-c2ccccc2)cc1OC | inactive |
| Nc1cccc2c1C(=O)N(CC(=O)NC13CC4CC(CC(C4)C1)C3)C2=O | inactive |
| Cc1nn(CC(=O)N2c3ccccc3NC(=O)C2(C)C)c(C)c1[N+](=O)[O-] | inactive |
| CCOC(=O)c1ccc(-c2ccc(/C=N/NC(=O)c3cncc(Br)c3)o2)cc1 | inconclusive: 2.91 µM [activator, partial curve, poor fit] |
| COC(=O)c1c(C(=O)OC)c(-c2cccc(Cl)c2)n2c1CS(=O)(=O)C2 | inactive |
| O=C1C(C=Nc2ccccc2)=C(O)c2ccccc21 | inconclusive: 1 µM [activator, partial curve, poor fit] |
| CCOc1ccccc1C(=O)Nc1nn[nH]n1 | inactive |
| CCSc1nnc(-c2c[nH]c3ccccc23)o1 | inconclusive: 11.6 µM [activator, partial curve, poor fit] |
| COc1ccccc1/C=C/C1=NC(=C\N(C)C)/C(=O)O1 | inconclusive: 20.6 µM [activator, partial curve] |
| COc1ccc(CNC(=O)Nc2cccc(Cl)c2)cc1 | inconclusive: 14.6 µM [activator, partial curve] |
| Nc1ccc(C(=O)Nc2nc3ccccc3s2)cc1 | active: 0.517 µM |
| CCc1ccc(OCC(=O)NC(NC(=S)Nc2ccc(C)cc2C)C(Cl)(Cl)Cl)cc1 (centres undefined) | inactive |
| Nc1c(NC(=O)CC[n+]2ccccc2)cccc1[N+](=O)[O-] | inconclusive: 23.1 µM [activator, partial curve, poor fit] |
